According to a collection of fitness landscapes (doi:10.1016/j.celrep.2020.107928):
In all, about 81,000 sequences were measured (“one-hybrid fitness for binding parS DNA”: median about -0.17, highest 2% from about 0.51 on). The list shows a part of the results.

B1: Caulobacter ParB omega fusion; a variant is named by its letters at X, in order, B8GW30 (parent)
chain: MESVVVGEPGMSEGRRGLGRGLSALLGEVDAAPAQAPGEQLGGSREAPIEILQRNPDQPRRTFREEDLEDLSNSIREKGVLQPILVRPSPDTAGEYQIVAGERAWRAAQRAGLKTVPIMVRELDDLAVLEIGIIENVQRADLNVLEEALSYKVLMEKFERTQENIAQTIGKSXSHVANXMRLLXLPDEVQSYLVSGELTAXHARAIAAAADPVALAKQIIEGGLSVRETEALARKAPNLSAGKSKGGRPPRVKDTDTQALESDLSSVLGLDVSIDHRGSTGTLTITYATLEQLDDLCNRLTRGI

Variants of: B1
Experiment: one-hybrid fitness for binding parS DNA (scaled: cognate 1, non-cognate 0); higher = stronger binding
Details: with parS DNA site
In short: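 Fitness here means the log change in variant-to-wild-type read ratio between plasmids sequenced before and after selection. That scale was set so cognate equals 1 and non-cognate equals 0. The selection was a bacterial one-hybrid screen of Caulobacter ParB libraries, four specificity codons randomised, in E. coli USO carrying a HIS3 reporter with the site 19 bp from the promoter, grown 48 hours at 37°C on M9-minus-histidine with 0.1 mM IPTG and 5 mM 3-AT.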

Row | Variant | one-hybrid fitness for binding parS DNA
1 | LQAY | ≤ 0.2
2 | PNFT | ≤ 0.2
3 | KLVR | ≤ 0.2
4 | CYGR | ≤ 0.2
5 | EMLQ | ≤ 0.2
6 | KCHV | ≤ 0.2
7 | ACYM | ≤ 0.2
8 | WDLS | ≤ 0.2
9 | RCYN | 0.545
10 | QLET | ≤ 0.2
11 | GLLI | ≤ 0.2
12 | EHFR | ≤ 0.2
13 | AQNR | ≤ 0.2
14 | MRNG | ≤ 0.2
15 | HICG | ≤ 0.2
16 | IVHG | ≤ 0.2
17 | CCAT | ≤ 0.2
18 | DDHR | ≤ 0.2
19 | EELT | ≤ 0.2
20 | VDYR | ≤ 0.2
21 | VMNN | ≤ 0.2
22 | TSAM | ≤ 0.2
23 | DYAI | ≤ 0.2
24 | VVYP | ≤ 0.2
25 | YCDS | ≤ 0.2
26 | RQAF | 0.25

Row | Variant | one-hybrid fitness for binding parS DNA
27 | RPPS | ≤ 0.2
28 | SRKL | ≤ 0.2
29 | QQIM | ≤ 0.2
30 | NHCT | ≤ 0.2
31 | SSQY | ≤ 0.2
32 | EKPC | ≤ 0.2
33 | WCSN | ≤ 0.2
34 | CWPD | ≤ 0.2
35 | HHLV | ≤ 0.2
36 | GGDC | ≤ 0.2
37 | QHHC | ≤ 0.2
38 | GQLS | ≤ 0.2
39 | RFCG | 0.895
40 | EEQS | ≤ 0.2
41 | SYCR | ≤ 0.2
42 | FATS | ≤ 0.2
43 | TSAT | ≤ 0.2
44 | KSTW | ≤ 0.2
45 | DLNC | ≤ 0.2
46 | FDDR | ≤ 0.2
47 | MAMF | ≤ 0.2
48 | TAMR | ≤ 0.2
49 | TLDT | ≤ 0.2
50 | LNCT | ≤ 0.2
51 | SPCR | ≤ 0.2
52 | INTC | ≤ 0.2

Row | Variant | one-hybrid fitness for binding parS DNA
53 | RWTQ | ≤ 0.2
54 | HCVL | ≤ 0.2
55 | EMQM | ≤ 0.2
56 | PHCM | ≤ 0.2
57 | ISAH | ≤ 0.2
58 | QDQR | ≤ 0.2
59 | LWED | ≤ 0.2
60 | LAAD | ≤ 0.2
61 | LLTF | ≤ 0.2
62 | LPGR | ≤ 0.2
63 | GLRM | ≤ 0.2
64 | QHNR | ≤ 0.2
65 | NYWW | ≤ 0.2
66 | HSQR | ≤ 0.2
67 | CARC | ≤ 0.2
68 | AVMI | ≤ 0.2
69 | WAVC | ≤ 0.2
70 | GPLG | ≤ 0.2
71 | PWSC | ≤ 0.2
72 | PQPH | ≤ 0.2
73 | IGYM | ≤ 0.2
74 | RKIY | 0.352
75 | SRAV | ≤ 0.2
76 | SGTC | ≤ 0.2
77 | QIET | ≤ 0.2
78 | LGLL | ≤ 0.2

Row | Variant | one-hybrid fitness for binding parS DNA
79 | ITGW | ≤ 0.2
80 | VTWG | 0.201
81 | RAPM | ≤ 0.2
82 | IFNR | ≤ 0.2
83 | QDWL | ≤ 0.2
84 | AGLF | ≤ 0.2
85 | LRCA | ≤ 0.2
86 | FLSS | ≤ 0.2
87 | CVSE | ≤ 0.2
88 | WINS | ≤ 0.2
89 | TCST | ≤ 0.2
90 | RNCC | 0.704
91 | WTRF | ≤ 0.2
92 | ENNL | ≤ 0.2
93 | QRDV | ≤ 0.2
94 | AGRR | ≤ 0.2
95 | SQSC | ≤ 0.2
96 | LCLS | ≤ 0.2
97 | PKNP | ≤ 0.2
98 | AWVV | ≤ 0.2
99 | ILGI | ≤ 0.2
100 | CTES | ≤ 0.2
101 | KEER | ≤ 0.2
102 | IHDF | ≤ 0.2
103 | VRVL | ≤ 0.2
104 | SLWY | ≤ 0.2

Row | Variant | one-hybrid fitness for binding parS DNA
105 | RAQV | ≤ 0.2
106 | QRHF | ≤ 0.2
107 | MQVF | ≤ 0.2
108 | AIAP | ≤ 0.2
109 | YLMY | ≤ 0.2
110 | SALS | ≤ 0.2
111 | RMHE | ≤ 0.2
112 | PETC | ≤ 0.2
113 | HVDL | ≤ 0.2
114 | PKAR | ≤ 0.2
115 | TSGR | ≤ 0.2
116 | SVCY | ≤ 0.2
117 | QEEL | ≤ 0.2
118 | GQQI | ≤ 0.2
119 | LHQT | ≤ 0.2
120 | DWDS | ≤ 0.2
121 | HVRF | ≤ 0.2
122 | HLIY | ≤ 0.2
123 | YVTA | ≤ 0.2
124 | FRIL | ≤ 0.2
125 | HSTC | ≤ 0.2
126 | AAHS | ≤ 0.2
127 | AQTS | ≤ 0.2
128 | VEIS | ≤ 0.2
129 | RWDW | ≤ 0.2
130 | ISLG | ≤ 0.2

Row | Variant | one-hybrid fitness for binding parS DNA
131 | PWME | ≤ 0.2
132 | VKTR | ≤ 0.2
133 | NEHV | ≤ 0.2
134 | DRTV | ≤ 0.2
135 | ADNM | ≤ 0.2
136 | QHHM | ≤ 0.2
137 | RSMS | 0.994
138 | QLNY | ≤ 0.2
139 | HTYA | ≤ 0.2
140 | PQRT | ≤ 0.2
141 | SHHF | ≤ 0.2
142 | IGRC | ≤ 0.2
143 | FPAH | ≤ 0.2
144 | TMWT | ≤ 0.2
145 | VFIG | ≤ 0.2
146 | LPLR | ≤ 0.2
147 | LPER | ≤ 0.2
148 | RSGP | ≤ 0.2
149 | CQPN | ≤ 0.2
150 | AIRM | ≤ 0.2
151 | MHWM | 0.223
152 | PRRQ | ≤ 0.2
153 | GCNR | ≤ 0.2
